Screen size: about 48,000 compounds; about 120 (0.25%) were called active. Not shown: some 4% with an inconclusive outcome. Calls come from the whole dose curve; as a rule, active = well fitted activation curve with a large enough effect; inconclusive = small, poorly fitted or top-dose-only effect, or another doubt; inactive = no such curve, though single readings can be large or run the other way. The list shows a part of the results.
assay: Primary qHTS for Identification of Small Molecule Activators of Huntingtin-Antisense Promoter Activity; conditions: HEK293 HTT-AS promoter firefly luciferase reporter (activity 0% = vehicle and -100% = no light), 24 h; series mostly up to 57.5 µM; activity change, positive = activation: at the top concentration; note: nearly all actives have a fitted effect of over 55% in size
In short: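 HEK293 cells carrying firefly luciferase reporters were seeded at 2,500 per well in Opti-MEM and cultured for 24 h. They were then treated with compounds at up to 57.5 uM final for 24 h at 37 degrees C before Dual-Glo luminescence readout.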

Activity change, positive = activation, inactive:
CC(=O)Nc1ccc(NC(=O)c2c(C)nn(-c3ccccc3)c2-n2cccc2)cc1 -32.8%
CCc1nn2c(=O)cc(COC(=O)C3CCCCC3)nc2s1 -0.289%
COc1cccc(NC(=O)c2nnn(Cc3ccc(OC)c(Br)c3)c2N)c1 -26.6%
CCn1cc(C(=O)NCc2ccccc2OC)c(=O)c2cc(S(=O)(=O)N3CCCCCC3)ccc21 -28.9%
CCOC(=O)c1cc(-c2ccccc2)n(CCCC(=O)Nc2ccc(C)cc2Cl)c1C -30.6%
COC(=O)c1c(NC(=O)c2nc(SC)ncc2Cl)sc2c1CCCC2 -11.1%
CC(=O)NCc1nc2cccnc2n1Cc1ccccc1 -4.52%
CC(=O)c1cc(-c2ccccc2)n(CCC(=O)NCCc2ccccc2)c1C -17.5%
Cc1nc2c(-c3ccc(F)cc3)c(C)nn2c(C)c1CCC(=O)N1CCN(c2ccc(F)cc2)CC1 -13.7%
Cc1oc(-c2cccc(Cl)c2)nc1CSc1nnc(C)n2c1cc1occc12 -7.65%
COc1ccccc1N1CCN(C(=O)Cn2cnc3sc(C)c(S(=O)(=O)N4CCC(C)CC4)c3c2=O)CC1 24.1%
COc1ccc(Cl)cc1N(C)C(=O)Cc1noc2ccc(C)cc12 -7.77%
Cc1cccc(Cc2c(C)nc3nc(SCC(=O)NCc4ccc(F)cc4)nn3c2C)c1 -30.9%
C/C(=C1\CCOC(=O)S1)N(C=O)Cc1cnc(C)nc1N -6.12%
CC(C)(C)OC(=O)N1CCC(c2c(C(=O)NCc3ccccn3)cnn2-c2ccc(F)cc2)CC1 12.2%
COc1ccc2c(c1)c1c(c(=O)n(-c3cccc(C)c3)c(=O)n1CC(=O)N1CCCC1)n2C -10.5%
Cc1cc(C)c2c(=O)cc(C(=O)Nc3ccc(S(=O)(=O)Nc4onc(C)c4C)cc3)oc2c1 -5.14%
CCC(C)NC(=O)c1ccc2c(c1)N=C(C)c1cc(C)ccc1S2 (stereo unspecified) -50.6%
Cc1ccc2c(=O)cc(C(=O)Nc3c(C(=O)c4ccccc4)oc4ccccc34)oc2c1C -7.8%
COC(=O)[C@H](Cc1ccccc1)NC(=O)[C@@H](N)CC(=O)O
CCN1C(=O)c2ccccc2Sc2ccc(NC(=O)Cc3ccc(OC)cc3)cc21 -8.71%
COc1ccc(-c2cc(-c3ccccc3)nc3c2COc2ccccc2-3)cc1 -12.4%
CCCn1cc(S(=O)(=O)c2cc(C)ccc2C)c(=O)c2cc(F)c(N3CCCCCC3)cc21 -21.8%
CC(C)CC(=O)Nc1nnc2n1CCS2 0.501%
CCc1ccccc1N(c1nc(-c2ccc(OC)c(OC)c2)no1)c1nc(-c2ccc(OC)c(OC)c2)no1 -14.6%
COc1cccc(NC(=O)C(=O)NCCc2csc3nc(-c4ccccc4C)nn23)c1 1.94%
CC1=C(c2ccc(C)c(C)c2)S(=O)(=O)N=C1N1CCC(C(=O)NCc2ccc(Cl)cc2)CC1 -23.6%
O=C(NCCC1=CCCCC1)c1ccc2c(c1)N(Cc1ccc(Cl)cc1)C(=O)c1ccccc1S2=O (stereo unspecified) -29.8%
N#Cc1c(N(CC(=O)O)CC(=O)O)sc(C(=O)O)c1CC(=O)O -13.9%
COc1ccc(-n2c(=O)c3c(c4cc(OC)ccc4n3C)n(C)c2=O)cc1 -12.8%
CCOC(=O)c1cccc(NC(=O)c2cnc(N3CCCCC3)c3ccccc23)c1 -38.4%
CCOc1ccc(NC(=O)Cn2cc(C(=O)c3ccc(CC)cc3)c(=O)c3ccc(C)nc32)cc1 -13.6%
Cc1ccc(-n2c(=O)c3cccnc3n2CC(=O)NCc2ccc(F)cc2)cc1C -28.5%
Cc1ccc(CNC(=O)CN2CCCN(Cc3ccc(F)cc3)S2(=O)=O)cc1 -8.73%
CCOC(=O)C1=C(C)NC(=S)NC1c1cccc(O)c1 (stereo unspecified) -29.2%
CCN(CC)S(=O)(=O)c1ccc2c(c1)N(CC(=O)Nc1c(C)cc(C)cc1C)C(=O)C1CCCN21 (stereo unspecified) -9.69%
COc1ccc(NC(=O)CSc2nccn2Cc2ccco2)cc1OC 30.6%
O=C(COc1ccccc1F)Nc1ccc(Cl)c(-c2nc3ccccc3[nH]2)c1 -11.7%
Cc1cc(C)c(/C=C/c2onc(C)c2S(=O)(=O)N2CCC(C(=O)Nc3ccc(Cl)c(C(F)(F)F)c3)CC2)c(C)c1 3.53%
CCOC(=O)c1cc(NC(=O)c2ccc(OC)cc2)c(=O)n2c1oc1ccc(Cl)cc12 1.3%
CCn1c(CNC(=O)C23CC4CC(CC(C4)C2)C3)nnc1SCC(=O)Nc1ccc(F)cc1 -30.2%
CC1Cc2ccccc2N1C(=O)CSc1nnc(-c2cccc(Cl)c2)o1 (stereo unspecified) -4.98%
O=c1[nH]c2ccc(NCc3ccccc3F)cc2[nH]1 27.8%
O=C(CCc1ccccc1)NCc1ccc2c(c1)CCN2C(=O)c1ccc(Cl)cc1 0.717%
CCOc1ccc(CCNC(=O)c2cc3c(=O)n(C)c4ccccc4c3n2C)cc1 -20.2%
CCc1cccc(NC(=O)CC2Oc3ccc(C)cc3NC2=O)c1 (stereo unspecified) -16.4%
Cc1ccc(NC(=O)CC2Sc3ccccc3NC2=O)c(Br)c1 (stereo unspecified) -38%
O=C(NCCS(=O)(=O)N1CCN(c2cccc(Cl)c2)CC1)c1cc(=O)c2ccccc2o1 -8.51%
CCC(=O)N1CCc2cc(S(=O)(=O)NCCC(=O)Nc3ccc(OC)c(OC)c3)ccc21 5.32%
COc1ccc(NC(=O)CSc2nnc3c(C)cc4ccccc4n23)cc1 1.05%
COc1cc(-c2nnn(CC(=O)NCc3ccccc3)n2)cc(OC)c1OC -17.2%
Cc1cnc2c(c1SCC(=O)NCc1ccc(F)cc1)c(=O)n(C)c(=O)n2C -9.01%
Cc1cccc(N2CCN(c3ncnc4c3c(-c3ccccc3)cn4-c3ccccc3)CC2C)c1 (stereo unspecified) -18%
CCOC(=O)c1cnc2ccccc2c1Nc1ccc(N2CCOCC2)cc1 13.6%
COc1ccccc1NC(=O)c1nc(SCc2ccc(F)cc2)ncc1Cl -2.57%
CCc1ccc(N2CCn3c2nc2c3c(=O)n(CCc3ccccc3)c(=O)n2C)cc1 -16.9%
Cc1cccc(Cn2c(=O)n(-c3ccc(Cl)c(Cl)c3)c(=O)c3c(C)c(C)sc32)c1 9.82%
Cc1ccc2nc(NC(=O)CSc3nccn3Cc3ccccc3)sc2c1 -27.3%
CCOCCc1nnc(NC(=O)C(=O)c2cc(C)n(-c3cccc(Cl)c3)c2C)s1 10.1%
Cc1ccc(N(CC(=O)N2CCN(c3cc(Cl)ccc3C)CC2)S(=O)(=O)c2c(C)noc2C)cc1 -20.8%
Clc1ccc(-c2nc3ccccn3c2Nc2ccc3c(c2)OCCO3)s1 6.53%

Source: PubChem BioAssay AID1508624 (National Center for Advancing Translational Sciences (NCATS), 2021)
